Values marked as one replicate rest on one cluster of the flow cell; about a third of the high ones do not repeat.
test system: ATP; assay: switch fluorescence ratio, 500 uM ATP over buffer (Cy3 cluster intensity, sum of 5 cycles each) (fold (ratio)); higher = stronger signal-on switching upon ATP binding; sequences stand for … in TCGTCGGCAGCGTCAGATGTGTATAAGAGACAGTTTTTTTTTTTTTTTTTTTTTTTTT…TC; conditions: aptamer strand: ATP DNA aptamer (quencher-CACCTGGGGGAGTATTGCGGAGGAAGG + anchor), 100 nM annealed; ATP concentration: 500 uM; one replicate
Procedure, shortened: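 Clusters with intensities outside 100-1000 RFU were excluded. The remaining Cy3-labelled switching-strand clusters on a modified Illumina MiSeq flow-cell had been annealed to 100 nM quencher-labelled ATP aptamer and imaged in selection buffer, then after 15 min with 500 uM ATP at 22 °C, for five cycles separated by NaOH stripping and re-annealing. The fluorescence ratio, averaged per switch-domain sequence, is each cluster's summed target-cycle Cy3 intensity over its summed buffer-cycle Cy3 intensity.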
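Also: ATP exposure 15 min at 22 °C before imaging.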

Sequence | switch fluorescence ratio
GTAATTTCCC | 1.03
TTGGCTCCCT | 1.04
ACTTACCCCA | 1.22
ACGAGGAGAA | 0.986
TGAGTGATCG | 1
TGGGCAGTA | 1.06
TCACTAATGG | 0.987
GCATGAAAAA | 1.01
TACAGAAGAT | 1.03
ATTACTTGGA | 0.949
TTAATATTT | 1
TGGATATCCC | 1.04
TGATACCACT | 1.05
TTGAAACACG | 2.66
AACTGGACTG | 1.1
TTCGGACGGA | 1.02
AGGCATCCGA | 1.01
GATGGATAGA | 1.03
ATGTAGAACG | 0.99
TCGAAGTCTT | 1.05
ACAATCTCAT | 1.02
CACATATTCA | 1.02
GAAGGAAAGC | 1.01

Sequence | switch fluorescence ratio
TGTGGTCAGC | 0.995
CTTAGCTTAG | 1.01
CTAGTACGCG | 1.02
CCGGCAGCGA | 4.07
CGAACACGAT | 1.06
TATGTGCTCG | 1.03
AATCGGTCCG | 0.996
GGGATCTCAC | 1.01
ATTTTAAAAC | 1.01
TACACCGGAT | 1
CATTAATGGT | 1.01
AAGGTAGTCG | 1
AGAGGTCTTT | 0.975
GTGACACAGT | 1.02
TTGCCATGCT | 1.01
AAGGGACCTG | 1.01
TTACTGCGAC | 1.53
CGAGGGGCGC | 0.965
AGGTAGCAG | 0.938
CTTGAGATA | 0.97
TTCGGTCTAG | 0.976
ATTAAGAAGA | 1.04
TACGGTTGGT | 1.03

Sequence | switch fluorescence ratio
ACTGGTGTTG | 1.01
ATCGCTCGGG | 1.05
GGCAATGGTG | 1.04
TTGGGATCCA | 1.03
CAACAGACAG | 1.03
CTTGGTATAC | 1.38
AACGTATTTC | 1.1
CAATACGCCG | 1.03
GACGTTGTTG | 0.999
TGTGTGATTG | 0.953
GTTGTTTAAG | 0.984
ATCACCGCGG | 1.01
ACCACATCGA | 1.08
CCCTGATTGG | 1.04
CAATTCGCAC | 1.79
GAAATAGAGA | 0.999
TGACGGGTGC | 1.12
TGTGAAGGGA | 0.997
TGCTTGAGGA | 1
CTCAGGATAG | 1.31
CGCGAAATTT | 0.995
GTAGCCAATA | 2.2
AATTGAACAT | 1.02

Sequence | switch fluorescence ratio
TCCTCGTTGG | 1.02
CGGTGAGGCC | 0.995
TGCTTTCGT | 1.03
TAGCAGGTTG | 1.02
GGTCGACCAT | 0.969
CTCGATGTTG | 0.948
TTGAGCTTTC | 1.06
TGTCTGTCAT | 1.03
ATAAGTGTAA | 1.03
TAGCGCTGTA | 0.95
TCGGTCGCTG | 1
CCTGTCTGAC | 1.11
TCGATCTATG | 1.03
TAACTTGAGA | 0.963
GCATAGGATC | 0.981
GGAAATATCT | 0.993
CGTATGTTAA | 1.02
TGACGCTGAG | 1.03
ACCTTATGAT | 1.04
AAAATAGTAT | 1.03
TGGGGGTAT | 0.976
CGGTTCGCGC | 1
CCCCGTAAGT | 2.98

Sequence | switch fluorescence ratio
TGGTCGTAGA | 1.03
TGCGATCATC | 1.02
ATTGTTGGAC | 1.01
GTCAGTGGTT | 0.96
TTCGGATCGC | 1.04
TTTCAAGCTG | 1.09
GTTATATGA | 1.01
AAACTACCGA | 1.13
GAACTCAAGT | 0.946
CATGATCGTA | 1
GGGTTTGGTA | 0.994
CAGACGATTC | 1.07
CCAGTGTATT | 1.08
CTTACAGGTG | 1.79
ACCTTTGTT | 0.999
CCGTAACTGA | 1.31
CCACGTATTC | 1.33
AAGCGTCGAA | 0.961
CGGTAACTTT | 1.02
AGTTACGGA | 1.03
TTCAGTAGTC | 0.997
AATGACCCA | 1.04
CTCACCGCGG | 1.04

Sequence | switch fluorescence ratio
ATGGTAAAC | 1.05
AACTCAGCCC | 1.05
ACCAAGATCA | 1.04
TCTGGTGACA | 1.02
CTCATATCAG | 0.99
GTGTTCGTGG | 1.03
GATGCCCCTT | 1.08
AGAAAAACGT | 0.998
TCGTGGATCC | 0.966
GGTTCTCTCT | 1.02
TGAGAAGGGT | 0.982
TTGGATCAGG | 0.991
CCGTATATGA | 1.59
AGTACGGATC | 1
TCTTCTATTG | 1.01
ATGACGCCGA | 0.983
TTCGGGAT | 1.87
AGTAAAAACT | 1.03
CCACTGCAGT | 1.67
AGTTTCAATG | 1.01
CAATATTGGT | 1.03
CGGGACACCC | 1.03
AGGCGCATCT | 0.989

Sequence | switch fluorescence ratio
TCGGCGGGTA | 1
TAACCGTTGC | 1.35
TTCGTAATTA | 1.04
GTGTCGCGCT | 1
ACGAGGTTAC | 1.06
CCGCTTAATG | 2.14
TATCCAAGTG | 1.05
ATGTTTGTTG | 0.93
AGTTCTACA | 1.05
GGGACCAAGA | 1.02
TAGTCGGGAG | 0.988
CATCCTCCTC | 1.54
CGTCAGTGC | 2.04
CGATTATTT | 1.01
GGCACCGGGG | 1.01
AATGCGTTAA | 1.01
TTGGCCCCTG | 0.982
TTTTCCGGTA | 1.01
CCTACTGAAG | 1.06
